Reference: PubChem BioAssay (NCATS)
Inconclusive results, whose numbers are uncertain, are shown with a selection of clear calls. Potencies of inconclusive entries are doubtful fits and often do not repeat. Calls of active or inactive are those of the source. Calls come from the whole dose curve; as a rule, active = well fitted inhibition curve with a large enough effect; inconclusive = small, poorly fitted or top-dose-only effect; inactive = flat fitted curve, though single readings scatter.

Assay: Primary qHTS for inhibitors of nuclear receptor binding SET domain protein 2 (NSD2) in an isogenic RCH-ACV NSD2 p.E1099K mutant (9B) (AID 1645876); note: nearly all actives have a fitted effect of over 70% in size
Settings: RCH-ACV (leukaemia line) NSD2 E1099K (9B) viability, CellTiter-Glo, 72 h; series mostly up to 44.9 µM
Potency is the fitted concentration of half-maximal effect; tags give direction and shape of the fitted curve.

SMILES | Potency
CC(CC(C#N)(c1ccccc1)c1ccccc1)N(C)C (stereo not given) | active: 17.2 µM
CC12Cc3cn[nH]c3C=C1CCC1C2CCC2(C)C1CCC2(C)O (stereo not given) | inconclusive: 16.3 µM [inhibitor, single point]
COc1cc(CC(C)N)cc(OC)c1OC (stereo not given) | inconclusive: 52.7 µM [inhibitor, single point]
Sc1ccccc1Cl | inconclusive: 29.9 µM [inhibitor, single point]
CCCN(CCC)CCc1ccc(OC)c(OCCc2ccccc2)c1 | inconclusive: 25.8 µM [inhibitor, single point]
OC1(c2ccc(Cl)cc2)c2ccccc2C2=NCCN21 (stereo not given) | inconclusive: 29 µM [inhibitor, single point]
COc1cc(O)c2c(c1)/C=C/C[C@@H](O)[C@@H](O)C(=O)CCC[C@H](C)OC2=O | inconclusive: 20.1 µM [inhibitor, single point]
CN1C(=O)C(Cc2ccc3ccccc3c2)N=C(c2ccc(O)cc2)c2cc(Cl)ccc21 (stereo not given) | inconclusive: 20.5 µM [inhibitor, single point]
C/C=C(\C)C(=O)O[C@@H]1[C@@H](C)[C@]2(O)C3C=C(C)C(=O)[C@@]3(O)CC(CO)=C[C@H]2C2C(C)(C)[C@@]21OC(=O)C(C)CC (stereo not given in full) | inconclusive: 0.0022 µM [inhibitor, full curve, poor fit]
CC(O)(CS(=O)(=O)c1ccc(F)cc1)C(=O)Nc1ccc(C#N)c(C(F)(F)F)c1 (stereo not given) | inconclusive: 18.6 µM [inhibitor, partial curve]
CC(C(=O)c1ccccc1)N(C)C (stereo not given) | inconclusive: 33.5 µM [inhibitor, single point]
FC(F)(F)c1ccc(N2CCNCC2)nc1Cl | inconclusive: 20.5 µM [inhibitor, single point]
CCN(CC)C(=O)[C@@H]1C=C2c3cccc4[nH]cc(c34)C[C@H]2N(C)C1 | inconclusive: 127 µM [inhibitor, single point]
C[C@H]1CC[C@@H]2[C@@H](C)[C@H]3[C@H](C[C@H]4[C@@H]5CC=C6CC(O[C@@H]7O[C@H](CO)[C@@H](O)[C@H](O[C@@H]8O[C@H](CO)[C@@H](O)[C@H](O)[C@H]8O)[C@@H]7O[C@@H]7O[C@@H](C)[C@H](O)[C@@H](O)[C@H]7O)CC[C@]6(C)[C@H]5CC[C@]34C)N2C1 (stereo not given in full) | inconclusive: 6.9 µM [inhibitor, single point]
CCCCCn1cc(C(=O)Oc2cccc3cccnc23)c2ccccc21 | inconclusive: 29 µM [inhibitor, partial curve, poor fit]
CC[N+]1(C)CCCC(OC(=O)C(O)(c2ccccc2)c2ccccc2)C1 (stereo not given) | inactive
CCC1(CC)C(=O)NC(=O)NC1=O | inconclusive: 33.5 µM [inhibitor, single point]
CCC1(C2=NCCN2)Cc2ccccc2O1 (stereo not given) | inconclusive: 29.9 µM [inhibitor, single point]
O=S(=O)(O)C(F)(F)C(F)(F)C(F)(F)C(F)(F)C(F)(F)C(F)(F)C(F)(F)C(F)(F)F | inconclusive: 68.6 µM [inhibitor, single point]
CCOP(=S)(OCC)O/N=C(\C#N)c1ccccc1 | inconclusive: 26.6 µM [inhibitor, single point]
O=C(CCCN1CCC2(CC1)C(=O)NCN2c1ccccc1)c1ccc(F)cc1 | inconclusive: 3.35 µM [inhibitor, full curve]
CC(C)(C)C(O)C(Oc1ccc(Cl)cc1)n1cncn1 (stereo not given) | inconclusive: 68.6 µM [inhibitor, partial curve, poor fit]
Nc1ccncc1 | inactive
O=C(Nc1ccncc1)C(=O)c1cn(Cc2ccc(Cl)cc2)c2ccccc12 | active: 0.263 µM
N[C@@H]1C[C@H]1c1ccccc1 | inconclusive: 23.7 µM [inhibitor, single point]
CCO/N=C(\CC)C1=C(O)CC(c2c(C)cc(C)cc2C)CC1=O (stereo not given) | inconclusive: 43.3 µM [inhibitor, single point]
CC(=O)C1CCC2C3CCC4C[C@@H](O)CCC4(C)C3CCC12C (stereo not given in full) | inconclusive: 14.5 µM [inhibitor, partial curve]
C[C@H]1CNCCc2ccc(Cl)cc21 | inactive
NC1=NC(=O)N2CC12 (stereo not given) | inactive
COC1C(O)C(C)OC(OC2C(CO)O[C@@H](O[C@@H]3CC4CCC5C(CC[C@]6(C)[C@@H](C7=CC(=O)OC7)CC[C@]56O)[C@@]4(C)[C@H](O)C3)C(O)C2O)C1O (stereo not given in full) | active: 0.43 µM
